In all, about 350,000 compounds went through this assay and about 9,900 (2.8%) were called active. The inconclusive results got no clear call from the source; some entries with a clear call stand among them for comparison. Calls follow the shape of the dose curve; as a rule, active = well fitted activation curve with a large enough effect; inconclusive = small, poorly fitted or top-dose-only effect; inactive = no such curve, though single readings can be large or run the other way. No potency is given beside an inconclusive call; the fits are too rough.
Assay: A quantitative high throughput screen for small molecules that induce DNA re-replication in MCF 10a normal breast cells. Also: nearly all actives have a fitted effect of over 50% in size.
Conditions: MCF 10A DNA re-replication, Hoechst nuclear intensity, 48 h; series mostly up to 46.1 µM
Potency is read from the fitted curve at half-maximal effect; tags tell the direction and shape of the fitted curve.

SMILES | Potency
O=C(NCCC1=CCCCC1)c1cnccn1 | inactive
O=C(NC1CCCCC1)C(=S)N1CCCC1 | inactive
O=C(Nc1ccc(N2CCOCC2)cc1N1CCOCC1)c1cccc([N+](=O)[O-])c1 | inconclusive [activator, single point]
CCOC(=O)c1sc(NC(=O)CN2CCN(c3ccccc3)CC2)nc1C | inconclusive [activator, single point]
COc1ccc(Sc2ccc(NC(=O)c3ccccc3Cl)cc2C#N)cc1 | inconclusive [activator, full curve]
Fc1ccc2nc(Nc3nc4c(F)cccc4s3)sc2c1 | inconclusive [activator, single point]
COc1ccc(OCC(=O)N/N=C/C(C)=C/c2ccco2)c(Br)c1 | inconclusive [activator, single point]
CS(=O)(=O)N(CC(=O)Nc1cc(Cl)ccc1Cl)c1ccccc1 | inactive
COc1cccc(C(=O)Nc2cc3c(cc2Cl)OCCCO3)c1 | inactive
COc1ccc2c(c1)C1CC(C)(NC(=O)C1C(=O)c1ccccc1)O2 (stereo unspecified) | inactive
COc1cc(CNc2ccc(C)c(C)c2)cc(OC)c1OC | active: 16.4 µM
Clc1ccc(-c2csc(N3CCSCC3)n2)cc1 | inconclusive [activator, single point]
Cc1ccc(NC(=O)c2ccc3c(=O)n4c(nc3c2)CCCCC4)cc1F | inconclusive [activator, single point]
Cc1ccc(Cc2c[nH]c(=S)s2)cc1 | inconclusive [activator, partial curve, poor fit]
CCC1(c2ccccc2)NC(=O)N(CC(=O)Nc2ccc(S(=O)(=O)N3CC(C)CC(C)C3)cc2)C1=O (stereo unspecified) | inconclusive [activator, single point]
Cc1ccc(N=Cc2c(O)n(-c3ccc4c(c3)OCO4)c(=O)c3ccccc23)cc1 | inconclusive [activator, full curve]
CCN(CC)S(=O)(=O)c1ccc(Oc2ccccc2OC)cc1 | inconclusive [activator, partial curve, poor fit]
CC(=O)Nc1ccc(NC(=O)CCCNC(=O)c2ccc(Cl)cc2)cc1 | inactive
O=C(CCl)N=c1sccn1Cc1cccc2ccccc12 | inconclusive [activator, single point]
CCS(=O)(=O)Nc1ccc(Cc2ccncc2)cc1 | inconclusive [activator, single point]
O=C(CN1CCN(CC(=O)Nc2ccc(F)cc2)CC1)NCC1(N2CCOCC2)CCCCC1 | inactive
CCn1c(=O)cc(SCC(=O)NCc2ccccn2)c2ccccc21 | inconclusive [activator, partial curve, poor fit]
Cc1cnc(NC(=O)Cc2ccc(Br)cc2)s1 | inactive

SMILES | Potency
COc1cccc(-c2csc(N3CCN(C(=O)Nc4ccc(F)cc4)CC3)n2)c1 | inconclusive [activator, single point]
N#CCSc1nc2c(c(=O)n1Cc1ccco1)C1(CCCC1)Cc1ccccc1-2 | active: 13 µM
Cc1cccc(CN2CCN(Cc3nc4c(s3)CCCC4)CC2CCO)n1 (stereo unspecified) | inactive
COc1ccc2c(c1)C(=O)/C(=C/C=C/c1ccccc1)CC2 | inconclusive [activator, single point]
CN(c1cccc(NC(=O)c2ccc(Cl)c(S(=O)(=O)N3CCOCC3)c2)c1)S(C)(=O)=O | inactive
CN1C(C(=O)NCCc2cccs2)CC2Cn3c(nc4ccccc43)C21 (stereo unspecified) | inactive
CCC(C)c1ccccc1NC(=O)COC(=O)c1ccc2[nH]c3c(c2c1)CCCC3 (stereo unspecified) | active: 8.2 µM
COc1ccc(CNS(=O)(=O)c2csc(C(N)=O)c2)cc1OC | inactive
O=C(N/N=C/C(Br)=C/c1ccccc1)c1ccc([N+](=O)[O-])cc1 | inactive
CCCCC(=O)Nc1sc2c(c1C(N)=O)CCC2 | inconclusive [activator, single point]
COc1ccc(/C(O)=C/c2nc3ccc(C(=O)NCCc4cccc(C)c4)cc3[nH]c2=O)cc1OC | inconclusive [activator, single point]
CCOC(=O)c1c(NC(=O)C2C3C=CC(CC3)C2C(=O)O)sc(C)c1CC (stereo unspecified) | inconclusive [activator, full curve, poor fit]
Nc1c(S(=O)(=O)c2ccccc2)c2nc3ccccc3nc2n1Cc1ccco1 | inconclusive [activator, partial curve, poor fit]
O=C(c1ccc2nc(-c3ccco3)c(-c3ccco3)nc2c1)N1CCN(c2ncccn2)CC1 | active: 13 µM
COC(=O)c1c(-c2cccnc2)csc1NC(=O)c1cc(C)on1 | inconclusive [activator, single point]
CCOC(=O)c1sc(NC(=O)Nc2ccc(Cl)cc2)cc1C | inconclusive [activator, single point]
CCOC(=O)c1c(NC(=O)COc2cccc3c2CCN(CC)C3=O)sc2c1CCC2 | inconclusive [activator, partial curve, poor fit]
N#CC1=C(SCC(=O)Nc2nccs2)NC(=O)CC1c1ccccc1 (stereo unspecified) | inconclusive [activator, single point]
Cc1cc(C(=O)COC(=O)c2cccnc2Cl)c(C)n1C | inactive
COc1cc(CN2CCCC(C(=O)c3ccc(SC)cc3)C2)cc(Cl)c1O (stereo unspecified) | inconclusive [activator, full curve, poor fit]
CCOc1c(C(N)=O)c(-c2ccccc2)c2c(=O)[nH]c3ccccc3n12 | inconclusive [activator, single point]
CCCC(=O)Nc1ccc(S(=O)(=O)N2CCCC2)cc1 | inactive
CC(C)NC(=O)Nc1cccc2c1O[C@H](CN(C)S(=O)(=O)c1ccccc1)[C@@H](C)CN([C@H](C)CO)C2=O | inconclusive [activator, single point]
